Data as given in PubChem BioAssay AID504832 (National Center for Advancing Translational Sciences (NCATS), 2011).
In all, about 310,000 compounds went through this assay and about 18,000 (5.8%) were called active. Inconclusive means that the source gave no clear call. Such entries were picked first, then a sample of the others. Calls follow the shape of the dose curve; as a rule, active = well fitted inhibition curve with a large enough effect; inconclusive = small, poorly fitted or top-dose-only effect, or another doubt; inactive = no such curve, though single readings can be large or run the other way. No potency is given beside an inconclusive call; the fits are too rough.

assay: Primary qHTS for delayed death inhibitors of the malarial parasite plastid, 48 hour incubation; conditions: P. falciparum luciferase growth in erythrocytes; series mostly up to 28.7 µM; activity change, negative = inhibition: at the top concentration
How it was run: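 Read-out is firefly luciferase luminescence from an integrated reporter in P. falciparum, so falling signal marks reduced parasite growth. Infected erythrocytes were at 2% hematocrit and 0.1% parasitemia (final) in Albumax-supplemented RPMI 1640.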
% is scaled to controls: 0 for no effect and ±100 for the full control effect; potency is read from the fitted curve at half-maximal effect; tags tell the direction and shape of the fitted curve.

Structure (SMILES)	activity change, negative = inhibition	Potency
COc1cc2c(cc1OC)C(c1cccc(Br)c1)NC(=O)C2 (stereo not drawn)	inactive: 57.8%	–
COC(=O)c1ccc(-c2noc(CN(Cc3ccncc3)CC3CCCO3)n2)cc1 (stereo not drawn)	–	inconclusive [inhibitor, partial curve]
Cc1cc(C)nc(NCc2ccc(Cl)cc2)n1	–	inconclusive [inhibitor, single point]
O=C(N/C=C/n1cnc2cc(C(F)(F)F)ccc21)c1ccccc1F	inactive: -19.3%	–
N#CC1=C(N)NC(SCC(=O)c2ccccc2)=C(C#N)C12CCCC2	inactive: -63.1%	–
COc1cc(NC(=O)c2ccnc(N)c2)cc(C(=O)Nc2cccc(C(F)(F)F)c2)c1	–	active: 2.08 µM
Cc1cccc(C)c1NC(=O)CN(C)C(=O)c1ccccc1Cc1ccccc1	–	inconclusive [inhibitor, partial curve]
COc1ccccc1CNC(=O)CSc1nnc2ccc(-c3cccnc3)nn12	–	inconclusive [inhibitor, partial curve]
Cc1sc2nc(SC3CCOC3=O)n(Cc3ccccc3)c(=O)c2c1C (stereo not drawn)	inactive: 9.86%	–
CCOC(=O)C1CCCN(C2CC(=O)N(c3ccc(C(C)C)cc3)C2=O)C1 (stereo not drawn)	inactive: -7.9%	–
COc1ccc(NC(=O)CCOc2ccccc2C)cc1S(=O)(=O)N1CCCCC1	–	active: 11.7 µM
Cc1ccc(S(=O)(=O)N2CCC(C(=O)OCC(=O)N(CCC#N)c3ccc(F)cc3)CC2)cc1C	–	inconclusive [inhibitor, single point]
COc1ccc(S(=O)(=O)NCc2ccco2)c2ccccc12	inactive: -5.24%	–
Cc1nn(S(=O)(=O)c2ccccc2)c(C)c1Sc1ccc([N+](=O)[O-])cc1	–	inconclusive [inhibitor, single point]
C#CCOCCOCCOCCNc1nc(N2CCN(C(=O)C([C@@H](C)CC)n3cc(C(N)Cc4ccc(O)cc4)nn3)CC2)nc(N2CCN(C(=O)[C@H](CCC(=O)O)n3cc(C(N)[C@H](C)CC)nn3)CC2)n1 (stereo partly drawn)	inactive: 12.9%	–
O=c1c2ccccc2nc2c3ccccc3c(NCCO)nn12	–	inconclusive [inhibitor, single point]
CC(=O)c1cccc(NC(=O)c2cc(-c3ccncc3)nc3ccccc23)c1	–	active: 11.7 µM
COc1ccc([C@@H]2CC=C(C(=O)O)[C@H](c3ccc(F)cc3)N2S(=O)(=O)c2ccccc2C)cc1	–	inconclusive [inhibitor, partial curve, poor fit]
Cn1c(=O)n(C)c2cc(NC(=O)c3ccccc3[N+](=O)[O-])c(Br)cc21	–	inconclusive [inhibitor, partial curve]
O=C(COC(=O)C1CCN(S(=O)(=O)c2cccs2)CC1)c1cc2ccccc2o1	–	inconclusive [inhibitor, single point]
O=C1NC(=O)C(CCc2ccncc2)(CCc2ccncc2)C(=O)N1C1CCCCC1	–	inconclusive [inhibitor, partial curve, poor fit]
CC1CCCN(CCCCOc2cccc(Br)c2)C1 (stereo not drawn)	–	inconclusive [inhibitor, partial curve, poor fit]
CNS(=O)(=O)c1cccc(C(=O)OCC(=O)c2c(N)n(C)c(=O)n(C)c2=O)c1	–	inconclusive [inhibitor, full curve, poor fit]

Structure (SMILES)	activity change, negative = inhibition	Potency
Cc1ccc(C(C)C)c(OCCn2ccnc2C)c1	–	inconclusive [inhibitor, single point]
Cc1ccc2nc(Cl)c(CN(Cc3cccs3)C(=O)C3CC3)cc2c1	–	inconclusive [inhibitor, single point]
COc1cc(C2SCC(=O)N2c2nnc(C34CC5CC(CC(C5)C3)C4)s2)cc(OC)c1OC (stereo not drawn)	–	active: 14.7 µM
CC(=O)c1ccc(NC(=O)CSc2nnc(NC(=O)C3CC3)s2)cc1	inactive: 10.4%	–
CC(C)C(NS(=O)(=O)/C=C/c1ccccc1)C(=O)NCc1ccc(F)cc1 (stereo not drawn)	–	inconclusive [inhibitor, partial curve, poor fit]
O=C(CCc1nc2ccccc2c(=O)[nH]1)N1CCN(C/C=C/c2ccccc2)CC1	–	inconclusive [inhibitor, single point]
COc1ccccc1/C=C1\SC(=S)N(CCC(=O)NCCc2ccc(O)cc2)C1=O	–	inconclusive [inhibitor, partial curve]
Cc1ccc(C(=O)NCc2nc3ccccc3[nH]2)o1	inactive: -1.31%	–
Cc1nn(Cc2ccc([N+](=O)[O-])cc2)c(=O)n1-c1cccc(Cl)c1	inactive: -18%	–
CC(=O)NC(=C(Cl)Cl)S(=O)(=O)c1ccccc1	–	inconclusive [inhibitor, partial curve, poor fit]
Cc1[nH]n(-c2ccccc2)c(=O)c1C(=O)Nc1ccccc1	inactive: 44.8%	–
CCCc1cc(=O)oc2cc(C)cc(OCC(=O)Nc3ccc(CN4CCOCC4)cc3)c12	–	inconclusive [inhibitor, single point]
CCOc1ccc(CC(=O)N2N=C(C)CC2(O)C(F)(F)F)cc1 (stereo not drawn)	inactive: 6.95%	–
CN(C)S(=O)(=O)c1cccc(NC(=O)c2ccc3nccnc3c2)c1	inactive: 23.1%	–
O=C(COc1ccc(Cl)cc1)N1CCN(c2ccc([N+](=O)[O-])c(N3CCOCC3)c2)CC1	–	inconclusive [inhibitor, partial curve]
Cc1ccc(OCc2nnc(SCc3cc(=O)[nH]c4ccccc34)n2-c2ccccc2)cc1	–	inconclusive [inhibitor, single point]
COc1ccc(CCNc2oc(-c3ccc(OC)c(OC)c3)nc2P(=O)(OC)OC)cc1OC	–	inconclusive [inhibitor, partial curve]
O=S(=O)(c1ccccc1)c1nc(-c2cccs2)oc1NCc1cccnc1	–	inconclusive [inhibitor, partial curve]
Nc1nonc1-n1nnc(C(=O)N/N=C/c2ccncc2)c1CSc1ccc(Cl)cc1	inactive: -0.0882%	–
COc1ccc(CCNC(=O)c2c(O)c3c([nH]c2=O)CCCC3)cc1	inactive: -21.6%	–
COc1ccc(C(=O)Nc2cccc(NC(=O)c3ccc(OC)c(OC)c3)n2)cc1OC	–	active: 10.4 µM
CCOC(=O)C1CCN(c2cc3c(cc2NC(=O)c2ccccc2Br)n(C)c(=O)n3C)CC1	–	inconclusive [inhibitor, partial curve, poor fit]
O=C(/C=C/Nc1ccc(F)cc1)c1ccco1	inactive: 279%	–

Structure (SMILES)	activity change, negative = inhibition	Potency
CC(C)C[C@H](NC(=O)OC(C)(C)C)c1nnc(SCc2ccccc2)o1	–	active: 8.28 µM
CNC(=O)c1ccc(-n2nc(C)cc2-c2ccccc2)cc1	–	active: 1.65 µM
CCOc1ccc2[nH]c(=O)c(CN(Cc3nnnn3Cc3ccccc3)CC3CCCO3)cc2c1 (stereo not drawn)	–	inconclusive [inhibitor, partial curve, poor fit]
CCCCN=C(NNc1ccc(Br)cc1)C(=O)OCC	–	inconclusive [inhibitor, single point]
Cc1cccc(C(=O)NC(=S)Nc2ccc(S(=O)(=O)N3CCCCC3)cc2)c1	–	inconclusive [inhibitor, single point]
CC(C)(C)OC(=O)N[C@H](/C=C/c1ccccc1)C(=O)OC(C)(C)C	–	inconclusive [inhibitor, single point]
CC(=O)c1ccc(N2CCN(C(=O)c3ccc(NC(=O)C4CCCO4)cc3)CC2)cc1 (stereo not drawn)	–	inconclusive [inhibitor, single point]
CCOC(=O)C1CCCN(C(=O)c2sc3nc(C)nc(N(CC)CC)c3c2C)C1 (stereo not drawn)	–	inconclusive [inhibitor, partial curve]
O=C(NC1CCCCC1)c1cnn2c(C(F)(F)F)cc(-c3ccco3)nc12	–	inconclusive [inhibitor, partial curve]
COc1ccc(CCNC(=O)COc2ccc(-c3ccccc3)cc2)cc1OC	inactive: -29.6%	–
CC(Oc1ccc(Br)cc1)C(=O)NCC(c1cccs1)N1CCOCC1 (stereo not drawn)	–	inconclusive [inhibitor, single point]
CC(C)Cc1cc(C(=O)Nc2ccc(Br)cc2)no1	inactive: 110%	–
CC(C)CNC(=O)c1ccccc1SCC(=O)NC12CC3CC(CC(C3)C1)C2	–	inconclusive [inhibitor, single point]
Cc1ccc(S(=O)(=O)NCC(NCc2ccc(F)cc2)c2ccccc2)cc1 (stereo not drawn)	–	inconclusive [inhibitor, single point]
O=C(NNC(=O)c1cncc(Br)c1)c1ccncc1	inactive: 22.4%	–
Cc1cc(C)c2nc(-c3cccnc3)cc(C(=O)NC(C)c3cnn(C)c3C)c2c1 (stereo not drawn)	–	inconclusive [inhibitor, single point]
Cc1cc(C)cc(N(C(=O)CNS(=O)(=O)c2ccccc2)C(C(=O)NCc2ccccc2)c2ccc(C)o2)c1 (stereo not drawn)	–	inconclusive [inhibitor, single point]
Cc1ccc(-c2nc(CS(=O)(=O)CC(=O)N3CC(C)CC(C)C3)c(C)o2)cc1 (stereo not drawn)	inactive: 23.7%	–
CCOc1cccc(=NC2CCCCC2)c2c(C)[nH]c(C)c12	–	active: 2.33 µM
NC(=S)n1[nH]c(-c2ccc([N+](=O)[O-])cc2)c(N=Nc2ccc(Cl)cc2)c1=O	–	inconclusive [inhibitor, single point]
CC1(C)SC2[C@@H](N=CN3CCCCCC3)C(=O)N2[C@H]1C(=O)O (stereo partly drawn)	–	inconclusive [inhibitor, single point]
O=C(Nc1cc(S(=O)(=O)N2CCOCC2)ccc1N1CCOCC1)c1cc2c(s1)CCC2	–	inconclusive [inhibitor, partial curve]
